Results as given in a collection of fitness landscapes (doi:10.1126/science.1257360).
Some of the results follow.

B1: PhoQ; a variant is named by its letters at X, in order, P23837 (parent)
chain: MKKLLRLFFPLSLRVRFLLATAAVVLVLSLAYGMVALIGYSVSFDKTTFRLLRGESNLFYTLAKWENNKLHVELPENIDKQSPTMTLIYDENGQLLWAQRDVPWLMKMIQPDWLKSNGFHEIEADVNDTSLLLSGDHSIQQQLQEVREDDDDAEMTHSVAVNVYPATSRMPKLTIVVVDTIPVELKSSYMVWSWFIYVLSANLLLVIPLLWVAAWWSLRPIEALAKEVRELEEHNRELLNPATTRELTSLVRNLNRLLKSERERYDKYRTTLTDLTHSLKTPLXXLQXXLRSLRSEKMSVSDAEPVMLEQISRISQQIGYYLHRASMRGGTLLSRELHPVAPLLDNLTSALNKVYQRKGVNISLDISPEISFVGEQNDFVEVMGNVLDNACKYCLEFVEISARQTDEHLYIVVEDDGPGIPLSKREVIFDRGQRVDTLRPGQGVGLAVAREITEQYEGKIVAGESMLGGARMEVIFGRQHSAPKDE

Variants of: B1
Assay: enrichment ratio after two sorts for PhoP signalling (ratio (wild type AVST 3.29)); higher = more functional
Details: with PhoP (E. coli)

Point of comparison: AATA, enrichment ratio 2.35. Against it:
- DWPI — lower, ≤ 0.25
- YNVV — lower, ≤ 0.25
- KAAA — lower, ≤ 0.25
- WFEL — lower, ≤ 0.25
- RNQA — lower, ≤ 0.25
- GHWE — lower, ≤ 0.25
- VLND — lower, ≤ 0.25
- PYMV — lower, ≤ 0.25
- PPKQ — lower, ≤ 0.25
- CPFY — lower, ≤ 0.25
- VYRG — lower, ≤ 0.25
- GQLH — lower, 1.67
- YFKY — lower, ≤ 0.25
- VTCK — lower, ≤ 0.25
- FDLK — lower, ≤ 0.25
- NISH — lower, ≤ 0.25
- MDDC — lower, ≤ 0.25
- QISP — lower, ≤ 0.25
- YVFC — lower, ≤ 0.25
- GPMK — lower, ≤ 0.25
- LMNQ — lower, ≤ 0.25
- VRPE — lower, ≤ 0.25
- PASA — lower, ≤ 0.25
- YDWM — lower, ≤ 0.25
- IKGE — higher, 2.7
- DEGL — lower, ≤ 0.25
- NFQL — lower, ≤ 0.25
- NGTM — lower, ≤ 0.25
- MDWD — lower, ≤ 0.25
- QDAL — lower, ≤ 0.25
- PYVG — lower, ≤ 0.25
- ERRA — lower, ≤ 0.25
- NHDW — lower, ≤ 0.25
- FTVG — lower, ≤ 0.25
- YQKS — lower, ≤ 0.25
- VVFP — lower, ≤ 0.25
- RCEY — lower, ≤ 0.25
- HMPG — lower, ≤ 0.25
- PELT — lower, ≤ 0.25
- AATC — lower, ≤ 0.25
- GPRC — lower, ≤ 0.25
- QPVM — lower, ≤ 0.25
- RCNT — lower, ≤ 0.25
- TADW — lower, ≤ 0.25
- ETAR — lower, ≤ 0.25
- NPTD — lower, ≤ 0.25
- LLTA — lower, ≤ 0.25
- SHLW — lower, ≤ 0.25
- WSQN — lower, ≤ 0.25
- MKIC — lower, ≤ 0.25
- DPAH — lower, ≤ 0.25
- SSRK — lower, ≤ 0.25
- VKKI — lower, ≤ 0.25
- FGTE — lower, ≤ 0.25
- QAYQ — higher, 10.7
- DSEE — lower, ≤ 0.25
- THRM — lower, ≤ 0.25
- HRCY — lower, ≤ 0.25
- GQAW — lower, ≤ 0.25
- DHGD — lower, ≤ 0.25
- HWQN — lower, ≤ 0.25
- IRMP — lower, ≤ 0.25
- SRNH — lower, ≤ 0.25
- YCVA — lower, ≤ 0.25
- MSRD — lower, ≤ 0.25
- DGFD — lower, ≤ 0.25
- KIKR — lower, ≤ 0.25
- EDSN — lower, ≤ 0.25
- SQLV — higher, 11.8
- TDIK — lower, ≤ 0.25
- LADE — lower, ≤ 0.25
- ICRV — lower, ≤ 0.25
- RDED — lower, ≤ 0.25
- DSDE — lower, ≤ 0.25
- NSGN — lower, ≤ 0.25
- NPLQ — lower, ≤ 0.25
- ERMC — lower, ≤ 0.25
- IPQP — lower, ≤ 0.25
- CHPW — lower, ≤ 0.25
- ELKG — lower, ≤ 0.25
- LWCG — lower, ≤ 0.25
- YDKY — lower, ≤ 0.25
- YQLV — lower, ≤ 0.25
- YSTD — lower, ≤ 0.25
- PWFD — lower, ≤ 0.25
- FEDV — lower, ≤ 0.25
- TGLL — higher, 12.6
- MEKH — lower, ≤ 0.25
- PFCA — lower, ≤ 0.25
- ENLS — lower, ≤ 0.25
- RKIC — lower, ≤ 0.25
- TMQP — lower, ≤ 0.25
- FETW — lower, ≤ 0.25
- SSHG — lower, ≤ 0.25
- NLEF — lower, ≤ 0.25
- GHQP — lower, ≤ 0.25
- RDSY — lower, ≤ 0.25
- PWRV — lower, ≤ 0.25
- DVWW — lower, ≤ 0.25
- IYTV — lower, ≤ 0.25
- AGPK — lower, ≤ 0.25
- DQIN — lower, ≤ 0.25
- LWKF — lower, ≤ 0.25
- PPDY — lower, ≤ 0.25
- KICN — lower, ≤ 0.25
- GKFP — lower, ≤ 0.25
- HHCF — lower, ≤ 0.25
- RCPK — lower, ≤ 0.25
- LELN — lower, ≤ 0.25
- WTQH — lower, ≤ 0.25
- PHDR — lower, ≤ 0.25
- RKAY — lower, ≤ 0.25
- VHYR — lower, ≤ 0.25
- TRWD — lower, ≤ 0.25
- RVVV — lower, ≤ 0.25
- TNLH — lower, 1.37
- FAME — lower, ≤ 0.25
- EGFR — lower, ≤ 0.25
- AFCT — lower, ≤ 0.25
- ICSL — lower, 2.22
- HGFE — lower, ≤ 0.25
- LHGI — lower, ≤ 0.25
- RIYP — lower, ≤ 0.25
- NKMA — lower, ≤ 0.25
- MISI — higher, 9.53
- HMVY — lower, ≤ 0.25
- YSYQ — lower, ≤ 0.25
- MYVC — lower, ≤ 0.25
- ETPK — lower, ≤ 0.25
- MLAG — lower, ≤ 0.25
- YPML — lower, ≤ 0.25
- DMGS — lower, ≤ 0.25
- VSHQ — lower, ≤ 0.25
- FKFC — lower, ≤ 0.25
- NRFL — lower, ≤ 0.25
- TPMM — lower, ≤ 0.25
- ECIL — lower, ≤ 0.25
- DAYV — lower, ≤ 0.25
- PKWT — lower, ≤ 0.25
- VSLN — lower, 0.911
- WRKC — lower, ≤ 0.25
- QNFR — lower, ≤ 0.25
- MLDK — lower, ≤ 0.25
- YACK — lower, ≤ 0.25
- AFWL — lower, ≤ 0.25
- VVIN — lower, ≤ 0.25
- FVVA — lower, ≤ 0.25
- IKWR — lower, ≤ 0.25
- SHML — higher, 6.64
- GSAT — higher, 8.69
- CHTF — lower, ≤ 0.25
- LYRV — lower, ≤ 0.25
- YQVQ — lower, ≤ 0.25
- YKMF — lower, ≤ 0.25
- VSEV — lower, ≤ 0.25
- YHKM — lower, ≤ 0.25
- QVPN — lower, ≤ 0.25
- GKPA — lower, ≤ 0.25
- FGYM — lower, ≤ 0.25
- EMCK — lower, ≤ 0.25
- AHSW — lower, ≤ 0.25
- TEQD — lower, ≤ 0.25
- LHFT — lower, ≤ 0.25
- KQPE — lower, ≤ 0.25
- AWRC — lower, ≤ 0.25
- IWCI — lower, ≤ 0.25
- NSRY — lower, ≤ 0.25
- EAVD — lower, ≤ 0.25
- EGYA — lower, ≤ 0.25
- VIRV — lower, ≤ 0.25
- SATN — higher, 6.01
- EQAP — lower, ≤ 0.25
- VSFG — lower, 0.292
- AQWM — lower, ≤ 0.25
- GGML — higher, 15.7
- MNCF — lower, ≤ 0.25
- PYFR — lower, ≤ 0.25
- LYYM — lower, ≤ 0.25
- QIGK — lower, ≤ 0.25
- IKSW — lower, ≤ 0.25
- CINT — higher, 5.01
- WMKY — lower, ≤ 0.25
- INFH — lower, ≤ 0.25
- QSYY — higher, 8.21
- HSIP — lower, ≤ 0.25
- TDPE — lower, ≤ 0.25
- FYNN — lower, ≤ 0.25
- MQLM — lower, 1.1
- TVTS — higher, 5.87
- MSCP — lower, ≤ 0.25
- EYEL — lower, ≤ 0.25
- VARH — lower, ≤ 0.25
- GPLK — lower, ≤ 0.25
- ESMT — lower, ≤ 0.25
